Measured values from PubChem BioAssay AID2100 (National Center for Advancing Translational Sciences (NCATS), 2009).
Values joined by “and” are separate entries in the source; they are usually repeats but may differ in a detail not shown here. Equal entries are not always repeated. Screen size: about 300,000 compounds; about 1,200 (0.4%) were called active. Inconclusive means that the source gave no clear call. Such entries were picked first, then a sample of the others. The call rests on the fitted dose curve; in most records, active means well fitted inhibition curve with a large enough effect; inconclusive means small, poorly fitted or top-dose-only effect, or another doubt; inactive means no such curve, though single readings can be large or run the other way. Where the call is inconclusive, the potency comes from a doubtful curve fit.
Potency means the concentration at half of the fitted maximal effect.
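Wherever activity change, negative = inhibition is given: 0% = full enzyme reaction and -100% = no-enzyme basal signal.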

Each molecule was assayed against Lysosomal alpha-glucosidase (Homo sapiens) (UniProt P10253) (assay: qHTS Assay for Inhibitors and Activators of Human alpha-Glucosidase Cleavage of Glycogen). Conditions: recombinant GAA, glycogen substrate, Amplex Red glucose oxidase fluorescence; activity change, negative = inhibition: at 76.4 µM (top of the series) unless noted.
In short: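 Recombinant human alpha-glucosidase (4 nM final) hydrolysed bovine liver glycogen (30 ug) for 40 min at 37 C in pH 5.0 citrate/phosphate with 0.01% Tween-20. Released glucose detected by glucose oxidase/Amplex Red, Ex 573/Em 610 nm. Compounds up to 77 uM; AC50 from Hill fits.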
In the case of Oc1ccc(N=Nc2c(O)ccc3ccccc23)cc1, the Potency is reported as inconclusive: 17.6 µM [inhibitor, single point].
For O=C(c1ccc2ccccc2c1)N1CCN(c2ccccn2)CC1, the Potency was “inactive”.
With Cc1c(NC(=S)/C=C2\N(C)c3ccccc3C2(C)C)c(=O)n(-c2ccccc2)n1C the Potency was inconclusive: 17.8 µM [inhibitor, partial curve].
Cc1cc(Br)ccc1NC(=O)C1CCN(S(=O)(=O)c2cccc3nsnc23)CC1 was tested, and the Potency was “inactive”.
COc1ccc(C(=O)c2ccccc2)c2c(O)ccc(C(=O)c3ccccc3)c12 was tested, and the Potency was “inactive”.
With CCCNC(=O)C(=O)Nc1ccc(N(C)C)cc1 the Potency was inconclusive: 28 µM [activator, partial curve].
In the case of COC(=O)c1sccc1NC(=O)Nc1ccccc1F, the Potency is reported as “inactive”.
For COC(=O)[C@@]1(Cc2ccc(F)cc2)[C@H]2c3cc(C(=O)N(C)C)n(Cc4ccccc4)c3C[C@H]2CN1C(=O)c1ccccc1, the Potency was “inactive”.
In the case of COc1cc(C2C=C(c3cccs3)Nc3ncnn32)cc(OC)c1OC (centres undefined), the Potency is reported as inconclusive: 25.1 µM [activator, single point].
For COc1ccccc1-c1cc(C(=O)Nc2ccc(F)cc2F)no1, the Potency was “inactive”.
In the case of Cc1cc(C(C#N)c2ccccc2F)n2ncnc2n1 (centres undefined), the Potency is reported as inconclusive: 17.6 µM [inhibitor, partial curve].
For CCOC(=O)c1c(N)sc(-c2ccccc2)c1C, the Potency was inconclusive: 50.1 µM [inhibitor, single point].
For Nc1ccc(N2CCCCC2)c2nonc12, the Potency was inconclusive: 22.2 µM [inhibitor, single point].
With COc1ccc(S(=O)(=O)c2c(C)c(NS(=O)(=O)c3ccccc3)cc(C)c2O)cc1 the Potency was inconclusive: 10 µM [inhibitor, partial curve] and inconclusive: 14.1 µM [inhibitor, partial curve].
With CCSC1=C(C#N)C2(CCCCC2)C(C#N)C(=O)N1 (centres undefined) the Potency was inconclusive: 28.2 µM [inhibitor, partial curve].
With COC(=O)c1cc(NCc2c(F)cccc2Cl)ccc1N1CCOCC1 the Potency was active: 12.5 µM.
In the case of C=CCn1c2ccccc2c2n[nH]c(=S)nc21, the Potency is reported as inconclusive: 31.6 µM [inhibitor, single point].
For Cc1ccc2c(c1)-c1nc(-c3ccc4c(c3)NC(=O)CO4)cc(-c3ccc(F)cc3)c1CO2, the Potency was “inactive”.
For CCOC(=O)C1CCN(c2nc3ccccc3nc2C(C#N)C(=O)NCCc2ccccc2)CC1 (centres undefined), the Potency was active: 14 µM.
COc1ccc(OCC(=O)NC(=S)N2CCCc3ccccc32)cc1 was tested, and the Potency was inconclusive: 28 µM [inhibitor, partial curve].
NS(=O)(=O)c1ccc(NN=C2CCN(Cc3ccccc3)CC2)c([N+](=O)[O-])c1 was tested, and the Potency was inconclusive: 3.16 µM [inhibitor, full curve].
With COc1ccc(-c2nc3cc(C)ccn3c2NC(=O)c2ccc(C)c(C)c2)cc1 the Potency was inconclusive: 35.5 µM [inhibitor, partial curve].
COc1ccc(C2NC(=O)c3sc(=S)n(-c4ccccc4)c3N2)cc1 (centres undefined) was tested, and the Potency was inconclusive: 28 µM [inhibitor, single point].
COc1ccc(-c2cc(C(=O)NCCCN3CCOCC3)no2)cc1 was tested, and the Potency was inconclusive: 20 µM [inhibitor, partial curve].
With CCN1CCc2c(sc(N)c2C#N)C1 the Potency was inconclusive: 22.2 µM [activator, partial curve].
In the case of COc1ccc(NC(=O)N(C2CCCCC2)C2CCN(C(C)C)CC2)c(OC)c1, the Potency is reported as inconclusive: 3.52 µM [inhibitor, full curve].
For Cc1ccccc1/C=C/c1nc2ccccc2c(=O)[nH]1, the Potency was inconclusive: 50.1 µM [inhibitor, single point].
With CC1NC(=S)N(C2CCCCC2)C1=O (centres undefined) the Potency was inconclusive: 7.08 µM [inhibitor, full curve, poor fit].
In the case of CCN(CC)S(=O)(=O)c1ccc(NC(=O)CN(c2ccccc2)S(=O)(=O)N(C)C)cc1, the Potency is reported as “inactive”.
Oc1ccc(O)c(Cc2nc3ccccc3[nH]2)c1 was tested, and the Potency was inconclusive: 3.55 µM [inhibitor, single point].
For Cc1ccc(Nc2c(-c3c[nH]c4ccccc34)nc3ccccn23)cc1, the Potency was active: 4.47 µM.
O=C(CSc1nnc2n1CCCN2)c1ccc([N+](=O)[O-])cc1 was tested, and the Potency was inconclusive: 14.1 µM [inhibitor, partial curve].
With O=C1Nc2ccccc2S/C1=C/NCc1ccccc1Cl the Potency was inconclusive: 44.7 µM [inhibitor, single point].
For Cc1nn(-c2ccccc2)c(C)c1-c1nnc(C(F)(F)F)o1, the Potency was “inactive”.
With Cc1ccc(NC(=O)c2ccc(CSc3ccccn3)cc2)c(O)c1 the Potency was inconclusive: 25.1 µM [inhibitor, partial curve].
For COc1cc(-c2nc3ccc(C)cn3c2Nc2ccc3c(c2)OCCO3)ccc1O, the Potency was “inactive”.
In the case of O=C1OC2(CCCCC2)CC2=C1C1O[C@](CCCCN3C(=O)c4ccccc4C3=O)(Cc3ccccc31)O2, the activity change, negative = inhibition is reported as inactive: 13.5% [at 15.3 µM].
With COc1ccc(C(=O)NC(=S)N(CCC(C)C)c2c(N)n(Cc3ccccc3)c(=O)[nH]c2=O)cc1 the Potency was inconclusive: 7.88 µM [inhibitor, full curve].
In the case of CC(C)n1c(=O)[nH][nH]c1=S, the Potency is reported as inconclusive: 20 µM [inhibitor, partial curve].
CC1(C)Cc2c(sc3ncn4c(=S)[nH]nc4c23)CO1 was tested, and the Potency was active: 28.2 µM.
With Cc1cc(C)c(O)c(-c2cc(C(=O)NCCc3ccc(S(N)(=O)=O)cc3)[nH]n2)c1 the Potency was inconclusive: 17.8 µM [inhibitor, partial curve].
In the case of Cc1nn(CCC(=O)NNC(=S)Nc2ccc(F)cc2)c(C)c1[N+](=O)[O-], the Potency is reported as inconclusive: 12.6 µM [inhibitor, partial curve].
With O=C(O)COCC(=O)N1CCN(C2c3ccccc3-c3ccccc32)CC1 the Potency was “inactive”.
With Cc1cc(-c2n[nH]c(=S)n2/N=C/c2c[nH]c3ccccc23)n[nH]1 the Potency was inconclusive: 22.4 µM [inhibitor, partial curve].
With Cc1nn(-c2ccccc2)c2c1C(c1ccc(O)c(O)c1)N1C(=N2)C(Nc2ccccc2)=Nc2ccccc21 (centres undefined) the Potency was inconclusive: 11.2 µM [inhibitor, partial curve].
For CCCCCOc1ccc(/C=C/C(=O)Nc2sc(C)c(C)c2C(=O)OCC)cc1OC, the Potency was “inactive”.
With Cc1c(NC(=O)C(=O)/C=C(/O)c2ccccc2)c(=O)n(-c2ccccc2)n1C the Potency was inconclusive: 28.2 µM [inhibitor, partial curve].
For CCOc1ccc(/C=N/Nc2ccccn2)cc1, the Potency was inconclusive: 20 µM [inhibitor, partial curve].
For Cc1ccc2nc(-c3cccs3)c(Nc3c(C)cccc3C)n2c1, the Potency was inconclusive: 11.2 µM [inhibitor, partial curve].
For C/C(=N\O)C1(C)N(O)C(C)(C)C(c2ccc(F)cc2)=[N+]1[O-] (centres undefined), the Potency was inconclusive: 12.5 µM [inhibitor, partial curve].
In the case of COc1ncnc2c1NC1=C(S2)C(=NCCC(=O)O)CC(C)(C)C1, the Potency is reported as inconclusive: 17.6 µM [inhibitor, partial curve].
With Cn1c(NN)nc2sc3c(c2c1=O)CC(C)(C)OC3 the Potency was inconclusive: 50.1 µM [activator, single point].
In the case of O=S1(=O)CCN2C=C(Cl)C=C(Cl)C2=N1, the activity change, negative = inhibition is reported as inconclusive: 31.2% [activator].
O=C(c1ccc(N2CCC3(CC2)OCCO3)c([N+](=O)[O-])c1)N1CCOCC1 was tested, and the Potency was inconclusive: 50.1 µM [inhibitor, single point].
CCc1nn(C)c(N)c1C was tested, and the Potency was inconclusive: 31.4 µM [inhibitor, partial curve].
With COc1ccc(/C=N/Nc2ccccc2C(=O)O)cc1 the Potency was inconclusive: 6.31 µM [inhibitor, single point].
For O=C(NNC1=C(C(=O)C(F)(F)F)CCC1)c1cccc(O)c1, the Potency was inconclusive: 50.1 µM [inhibitor, single point].
In the case of CCCCN(C)C(=O)CCC(=O)Nc1ccc2nc(N3CCOCC3)cc(C)c2c1, the Potency is reported as inconclusive: 28 µM [activator, single point].
In the case of COc1cccc(CNn2c(-c3cccc(C)c3)nc3ccccc3c2=O)c1O, the Potency is reported as active: 31.4 µM.
COc1cc(NC(=O)C2C3C=CC(C3)C2C(=O)O)ccc1NC(=O)c1ccccc1 (centres undefined) was tested, and the Potency was “inactive”.
Cc1cccc2nc(-c3ccccn3)c(Nc3ccccc3)n12 was tested, and the Potency was inconclusive: 4.47 µM [inhibitor, full curve].
With Cc1cc(/C=C2/NC(=O)NC2=O)c(C)n1-c1ccc(N2CCOCC2)cc1 the Potency was inconclusive: 28.2 µM [activator, partial curve].
In the case of Cc1ccc(-c2nc(CSc3nnc(C)n4c3cc3occc34)c(C)o2)cc1, the Potency is reported as inconclusive: 11.2 µM [inhibitor, partial curve].
In the case of CCOC(=O)c1cc(NCc2cccs2)ccc1N1CCOCC1, the Potency is reported as inconclusive: 5.62 µM [inhibitor, partial curve].
In the case of NC(=O)N1c2ccccc2C=Cc2ccccc21, the Potency is reported as “inactive”.
With Cc1cccc(-n2ncc3c(NCCc4ccc(S(N)(=O)=O)cc4)ncnc32)c1 the Potency was inconclusive: 14.1 µM [inhibitor, partial curve, poor fit].
C/C(=N\O)C1(C)N(O)C(C)(C)C(c2ccc(Br)cc2)=[N+]1[O-] (centres undefined) was tested, and the Potency was active: 6.26 µM.
In the case of Cc1nn(CCC(=O)NNC(=S)Nc2ccc([N+](=O)[O-])cc2)c(C)c1[N+](=O)[O-], the Potency is reported as inconclusive: 24.9 µM [inhibitor, partial curve].
For O=c1cc(-c2ccccc2Cl)oc2c(NS(=O)(=O)c3cccs3)ccc(O)c12, the Potency was inconclusive: 15.8 µM [inhibitor, partial curve].
